Test results taken from PubChem BioAssay AID588591 (National Center for Advancing Translational Sciences (NCATS), 2011).
The campaign covered roughly 390,000 compounds. About 4,700 (1.2%) were called active. About 4% were inconclusive and are not listed. Calls come from the whole dose curve; as a rule, active = well fitted inhibition curve with a large enough effect; inconclusive = small, poorly fitted or top-dose-only effect, or another doubt; inactive = no such curve, though single readings can be large or run the other way. The list shows a part of the results, in another mix than the full data.
% is set by controls: 0 for no effect and ±100 for the full control effect; potency is the fitted concentration of half-maximal effect.

These compounds were tested against DNA polymerase eta (Homo sapiens) (UniProt Q9Y253) (assay: qHTS for Inhibitors of Polymerase Eta). Conditions: recombinant Pol eta, fluorescent DNA replication assay; series mostly up to 114 µM; activity change, negative = inhibition: at the top concentration.
UniProt Q9Y253, sequence (Q9Y253 whole entry, looked up): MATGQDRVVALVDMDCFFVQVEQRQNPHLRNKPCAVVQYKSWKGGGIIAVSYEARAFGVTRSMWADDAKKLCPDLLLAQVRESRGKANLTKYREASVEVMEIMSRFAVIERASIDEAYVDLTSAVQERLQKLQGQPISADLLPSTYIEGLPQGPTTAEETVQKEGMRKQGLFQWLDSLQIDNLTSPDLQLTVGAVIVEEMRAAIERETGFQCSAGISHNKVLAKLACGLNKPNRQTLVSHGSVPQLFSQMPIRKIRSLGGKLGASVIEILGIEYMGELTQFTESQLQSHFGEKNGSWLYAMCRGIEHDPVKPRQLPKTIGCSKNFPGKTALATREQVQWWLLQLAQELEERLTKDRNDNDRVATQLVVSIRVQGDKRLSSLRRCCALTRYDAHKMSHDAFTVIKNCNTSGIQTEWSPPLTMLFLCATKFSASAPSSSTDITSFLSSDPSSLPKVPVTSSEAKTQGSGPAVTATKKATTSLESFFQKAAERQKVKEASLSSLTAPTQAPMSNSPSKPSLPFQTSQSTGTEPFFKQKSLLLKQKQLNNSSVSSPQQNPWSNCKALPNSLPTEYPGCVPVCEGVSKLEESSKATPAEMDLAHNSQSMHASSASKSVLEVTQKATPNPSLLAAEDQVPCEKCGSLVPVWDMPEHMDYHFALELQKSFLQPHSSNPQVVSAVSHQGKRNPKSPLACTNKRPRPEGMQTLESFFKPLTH
Excerpt: The Y-family of DNA polymerases, such as Pol eta, are specifically involved in DNA repair. Pol eta copies undamaged DNA with a lower fidelity than other DNA-directed polymerases. However, it accurately replicates UV-damaged DNA; when thymine dimers are present, this polymerase inserts the complementary nucleotides in the newly synthesized DNA, thereby bypassing the lesion and suppressing the mutagenic effect of UV-induced DNA damage. […] Thus, while pol eta's (and most likely iota's) normal function is to protect humans against the deleterious consequences of DNA damage, under certain conditions they can have deleterious effects on human health. As a consequence, we propose to utilize a high throughput replication assay to identify small molecule inhibitors of pol eta. In a collaboration between the National Institute of Child Health & Human Development (NICHD) and NIH Chemical Genomics Center, a high-throughput, fluorescent screen was developed to screen the NIH Molecular Libraries Small Molecule Repository (MLSMR). This screen is used to identify inhibitors of pol eta. NIH Chemical Genomics Center [NCGC] NIH Molecular Libraries Probe Centers Network [MLPCN] MLPCN Grant: MH090825 Assay Submitter (PI): Roger Woodgate, NICHD)
Three microliters of reagents (buffer in column 3 and 4 as negative control and 10 nM Pol eta in columns 1, 2, and 5-48) were dispensed into a 1,536-well black solid-bottomed plate. Compounds (23 nL) were transferred via Kalypsys pin tool equipped with 1536-pin array. The plates were then incubated for 15 min at room temperature, and 1 µL substrate (50 nM final concentration) was added to start the reaction and kinetically read twice at 0 min and 10 min on the Viewlux reader
For `COc1ccc2c(c1O)C13CCN(C)C(C2)C1CCC(=O)C3` (stereo unspecified), the “activity change, negative = inhibition” value was inactive: -8.63%.
In the case of `CCOC(=O)c1ccc(NC(=O)N2C[C@@H]3C[C@@H](C2)c2cccc(=O)n2C3)cc1`, the “activity change, negative = inhibition” value is reported as inactive: -13.4%.
With `COc1ccc(CNS(=O)(=O)c2cc3c(cc2C)N(C)CCO3)cc1` the “activity change, negative = inhibition” value was inactive: -18.9%.
With `C=C(C)[C@@H]1CC[C@]2(C(=O)O)CC[C@]3(C)[C@H](CC[C@@H]4[C@@]5(C)CC[C@H](O)C(C)(C)[C@@H]5CC[C@]43C)[C@@H]12` the “activity change, negative = inhibition” value was inactive: -8.71%.
In the case of `CN(C)C1C(=O)C(C(N)=O)=C(O)C2(O)C(=O)C3=C(O)c4c(O)cccc4C(C)(O)C3C(O)C12` (stereo unspecified), the “activity change, negative = inhibition” value is reported as inactive: -9%.
For `NCc1cc(=O)[nH]o1`, the “activity change, negative = inhibition” value was inactive: -0.877% [at 57.1 µM].
In the case of `CC(=O)OC12COC1CC(O)C1(C)C(=O)C(O)C3=C(C)C(O)CC(O)(C(OC(=O)c4ccccc4)C21)C3(C)C` (stereo unspecified), the “activity change, negative = inhibition” value is reported as inactive: -16.4%.
For `C[C@]12C=CC(=O)C=C1CC[C@@H]1C2=CC[C@]2(C)[C@@H](C(=O)CN3CCN(c4cc(N5CCCC5)nc(N5CCCC5)n4)CC3)CC[C@@H]12`, the “activity change, negative = inhibition” value was inactive: -23.9%.
With `NC(Cc1cc(O)c(O)cc1O)C(=O)O` (stereo unspecified) the Potency was active: 0.282 µM.
For `CCC1(O)C(=O)OCc2c1cc1n(c2=O)Cc2cc3c(N)cccc3nc2-1` (stereo unspecified), the “activity change, negative = inhibition” value was inactive: -6.32%.
In the case of `Oc1ccccc1O`, the “activity change, negative = inhibition” value is reported as inactive: 2.02%.
With `CCn1c(O)c(C=Nc2ccc(N3CCOCC3)cc2)c(=O)n(CC)c1=S` the “activity change, negative = inhibition” value was inactive: 71.3%.
In the case of `O=C1NC(=O)N(Cc2ccc(F)cc2)C(=O)/C1=C\c1ccc([N+](=O)[O-])s1`, the Potency is reported as active: 28.2 µM.
For `CCOc1ccc(NS(=O)(=O)c2ccc(Cl)c(N=Nc3c(O)[nH]c(=S)[nH]c3=O)c2)cc1Br`, the Potency was active: 20 µM.
In the case of `N#CC1=C(N)Oc2c(c(=O)oc3ccccc23)C1c1ccc([N+](=O)[O-])o1` (stereo unspecified), the Potency is reported as active: 20 µM.
In the case of `COc1ccc(Cc2nccc3cc(OC)c(OC)cc23)cc1OC`, the “activity change, negative = inhibition” value is reported as inactive: -7.07%.
For `NNC(N)=O`, the “activity change, negative = inhibition” value was inactive: 4.52% [at 57.1 µM].
For `C[C@@H]1CC2C3CC=C4C[C@@H](O)CC[C@]4(C)C3CC[C@]2(C)[C@H]1O` (stereo partly specified), the “activity change, negative = inhibition” value was inactive: -8.77%.
`CCN1/C(=C/C=C/C2=[N+](CC)c3ccccc3C2(C)C)C(C)(C)c2ccccc21` was tested, and the Potency was active: 31.6 µM.
With `COc1cccc(C2C([N+](=O)[O-])=C(N)Oc3c2c(=O)oc2ccccc32)c1` (stereo unspecified) the “activity change, negative = inhibition” value was inactive: 3.22%.
For `O=c1[nH]c(=O)n(Cc2ccccc2)c(O)c1/C=N/Nc1c(F)c(F)c(F)c(F)c1F`, the “activity change, negative = inhibition” value was inactive: 14%.
`Cc1c(Cc2ccccc2)c(=O)oc2cc(OCc3ccc(C(=O)O)cc3)ccc12` was tested, and the “activity change, negative = inhibition” value was inactive: 33.3%.
`CCN(CC)c1ccc(/C=C2\C(=O)NC(=O)N(Cc3ccco3)C2=O)cc1` was tested, and the Potency was active: 22.4 µM.
`Cc1ccc(C=C2C(Cl)=C(Cl)C(Cl)=C2Cl)cc1` was tested, and the Potency was active: 11.2 µM.
`CC(C)CNP(=S)(c1ccccc1)C(C)(C)C` (stereo unspecified) was tested, and the “activity change, negative = inhibition” value was inactive: 42.1%.
With `Cn1cccc1/C=C1\C(=O)NC(=O)N(Cc2ccccc2Cl)C1=O` the Potency was active: 28.2 µM.
In the case of `CCC(C)/C=C(C)/C=C/C1=CC2=C(Cl)C(=O)C(C)(OC(C)=O)C(=O)C2=CO1` (stereo unspecified), the “activity change, negative = inhibition” value is reported as inactive: -15.9%.
`CN1CCN(c2ccc([N+](=O)[O-])c3no[n+]([O-])c23)CC1` was tested, and the Potency was active: 89.1 µM.
In the case of `CC(C)c1ccc(N=Nc2c(O)[nH]c(=O)[nH]c2=O)cc1`, the “activity change, negative = inhibition” value is reported as inactive: 31.3%.
`Cc1ccc(OCC(=O)N2CCN(Cc3ccc([N+](=O)[O-])cc3)CC2)cc1` was tested, and the “activity change, negative = inhibition” value was inactive: 43.6%.
In the case of `CC(N)[C@H](O)c1ccc(O)c(O)c1` (stereo partly specified), the Potency is reported as active: 3.16 µM.
For `Cc1ccc2c(c1)C(c1ccccc1)=NCC(=O)N2C`, the “activity change, negative = inhibition” value was inactive: 23.3%.
In the case of `O=[N+]([O-])c1cc(O)c(O)c([N+](=O)[O-])c1`, the “activity change, negative = inhibition” value is reported as inactive: -29.8%.
With `O=S(=O)(c1ccccc1)N1CCCCC1c1cccnc1` (stereo unspecified) the “activity change, negative = inhibition” value was inactive: 11.9%.
With `CN(C)c1ccc(/C=C/c2cc[n+](C)c3ccccc23)cc1` the “activity change, negative = inhibition” value was inactive: -24.4%.
In the case of `O=C1NC(=O)N(CCc2ccc(F)cc2)C(=O)/C1=C\C=C\c1ccccc1`, the “activity change, negative = inhibition” value is reported as inactive: -11.5%.
